Source: PubChem BioAssay AID686978 (National Center for Advancing Translational Sciences (NCATS), 2013)
About 64,000 (15%) of roughly 420,000 compounds were called active. Inconclusive means that the source gave no clear call. Such entries were picked first, then a sample of the others. Calls follow the shape of the dose curve; as a rule, active = well fitted inhibition curve with a large enough effect; inconclusive = small, poorly fitted or top-dose-only effect; inactive = flat fitted curve, though single readings scatter. Potencies of inconclusive entries are left out as doubtful fits.

experiment: qHTS for Inhibitors of human tyrosyl-DNA phosphodiesterase 1 (TDP1): qHTS in cells in absence of CPT; conditions: DT40 Tdp1-/- hTDP1 cells, no CPT, ATP luminescence, 48 h; activity change, negative = growth inhibition: at 46.2 µM (top of the series) unless noted; also: nearly all actives have a fitted effect of over 55% in size
Method in brief: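 Cells were dispensed at 400 per well, compounds added by pin tool, plates incubated ≥48 hr at 37 °C, then CellTiter-Glo added for 30 min at room temperature before luminescence reading. Line: DT40 Tdp1-/- complemented with hTDP1; camptothecin omitted.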
% is scaled to controls: 0 for no effect and ±100 for the full control effect; potency is read from the fitted curve at half-maximal effect; tags tell the direction and shape of the fitted curve.

Compound | Potency | activity change, negative = growth inhibition
Cc1cccc(NC(=O)C(C)SCc2nc3sc4c(c3c(=O)[nH]2)CCCC4)n1 (configuration not stated) | inconclusive [inhibitor, single point] | –
Cc1ccc(C)c(N2CCN(C(=O)c3cnc4c(-c5ccccc5)c(C)nn4c3C)CC2)c1 | inconclusive [inhibitor, single point] | –
COc1cccc(NC(=O)Cn2cc(C(=O)C3CCCCC3)c3ccccc32)c1 | inconclusive [inhibitor, single point] | –
Cc1cccc(C)c1NC(=O)CN(C)CCc1ccccc1 | inconclusive [inhibitor, single point] | –
CCOC(=O)C1CCCN(CC(O)COc2ccc(OC)cc2C(C)(C)C)C1 (configuration not stated) | inconclusive [inhibitor, single point] | –
O=C(N/N=C/c1ccccc1F)NC12CC3CC(CC(C3)C1)C2 | – | inactive: -17.2%
c1cncc(OC2CCN(Cc3ccc4c(c3)CN(Cc3ccc5c(c3)OCO5)CCO4)CC2)c1 | inconclusive [inhibitor, single point] | –
Nc1nonc1-n1nnc(C(=O)N/N=C/c2cccs2)c1CSc1ccccc1 | – | inactive: 2.91%
O=C(NCc1cccnc1)c1ccccc1NS(=O)(=O)c1ccc(F)cc1F | – | inactive: 0.948%
O=C(NCc1ccc2c(c1)OCO2)c1nc(Cn2cc([N+](=O)[O-])cn2)no1 | – | inactive: -29.1%
O=C(O)CCC(=O)N1CCN(c2nc(-c3ccccc3Cl)c3cc(Br)ccc3n2)CC1 | inconclusive [inhibitor, partial curve] | –
S=C(Nc1cccc(Cl)c1)N1CCOCC1 | – | inactive: -17.6%
O=C(Nc1ccc(-c2cc(C(F)(F)F)nn2-c2ccccc2)cc1)c1cccc(F)c1 | active: 5.17 µM | –
Cc1ccc(-c2[nH]ncc2/C=N/n2c(COc3ccccc3)nc3ccccc3c2=O)cc1 | inconclusive [inhibitor, single point] | –
Cn1nccc1NC(=O)Nc1ccc(OC(F)(F)F)cc1 | inconclusive [inhibitor, single point] | –
Cc1ccc(C2CC2c2n[nH]c(=S)n2-c2ccc(C)cc2)cc1 (configuration not stated) | inconclusive [inhibitor, single point] | –
O=C(c1cc2c(s1)CCCC2)n1cccn1 | inconclusive [inhibitor, partial curve, poor fit] | –
O=C(C=Cc1ccccn1)c1ccccc1O | active: 3.66 µM | –
Cc1ccc(S(=O)(=O)N2CCCCC2CCNC(=O)C(=O)NC2CC2)cc1 (configuration not stated) | inconclusive [inhibitor, single point] | –
O=c1cc(CSc2ncn[nH]2)[nH]c2c(Cl)cccc12 | inconclusive [inhibitor, single point] | –
Cc1ccc2c(c1)N(C(=O)CCC(=O)Nc1ccccc1Cl)CC(C)O2 (configuration not stated) | inconclusive [inhibitor, single point] | –
Cc1ccc(C(=O)COc2cc(O)c3c(=O)cc(-c4ccccc4)oc3c2)cc1 | – | inconclusive: -31.7% [inhibitor]
c1ccc(CNCCC(Cc2ccccc2)c2ccco2)cc1 (configuration not stated) | active: 16.4 µM | –
O=C(Nc1nnc(C23CC4CC(CC(C4)C2)C3)s1)c1ccc(N2C(=O)CCC2=O)cc1 | active: 25.9 µM | –

Compound | Potency | activity change, negative = growth inhibition
Brc1ccccc1-n1ncc2c1ncn1nc(Cc3ccccc3)nc21 | – | inactive: -16.2%
O=C(CSc1nnc(NC(=O)NC2CCCCC2)s1)Nc1ccccc1F | inconclusive [inhibitor, single point] | –
CCOC(=O)c1c(C)[nH]c(C)c1S(=O)(=O)NCC(=O)Nc1cccc(C(F)(F)F)c1 | – | inactive: -21.7%
Cc1ccc(N2CCN(c3ccc(C)cc3)C2c2cccnc2)cc1 | inconclusive [inhibitor, single point] | –
Clc1ccc(Nc2nc(-c3cccnc3)cs2)cc1 | inconclusive [inhibitor, single point] | –
CC(NC(=O)CN1CCN(S(=O)(=O)c2ccc(Br)cc2)CC1)c1ccccc1 (configuration not stated) | – | inactive: -26%
O=C(Nc1cc(C(F)(F)F)ccc1Cl)C1CCN(c2nnc(-n3cccc3)s2)CC1 | inconclusive [inhibitor, partial curve, poor fit] | –
O=C(CSc1nc2c(oc3ccccc32)c(=O)n1CC1CCCO1)NCc1ccc(F)cc1 (configuration not stated) | inconclusive [inhibitor, partial curve] | –
CCOC(=O)C1CCN(c2nc(C)nc3c2oc2ccccc23)CC1 | active: 23.1 µM | –
Cc1cccc(N2CCN(C(=O)c3cccc(S(=O)(=O)N4CCOCC4)c3)CC2)c1C | inconclusive [inhibitor, single point] | –
COC(=O)C1=C(COc2ccccc2)NC(=O)NC1c1ccc(Cl)cc1 (configuration not stated) | inconclusive [inhibitor, single point] | –
O=C(CC1N=C2c3ccccc3N=C(SCc3ccc(Cl)cc3)N2C1=O)NCCc1ccccc1 (configuration not stated) | inconclusive [inhibitor, single point] | –
CC(=O)c1ccc(N/N=C2/CCCNC2=O)cc1 | – | inconclusive: 0.0525% [inhibitor]
COc1ccc(NC(=O)c2cc3cc(OC)ccc3oc2=N)cc1 | inconclusive [inhibitor, single point] | –
Cc1onc(-c2ccccc2)c1C(=O)Nc1cccc(OC(C)C)c1 | inconclusive [inhibitor, single point] | –
CC(N)c1csc(Nc2nccc(C(F)(F)F)n2)n1 (configuration not stated) | inconclusive [inhibitor, single point] | –
CC1=CC=CN2CC(O)CN=C12 (configuration not stated) | – | inactive: -17.7%
N#Cc1c(-c2cccs2)nc(SCC(=O)c2cccs2)[nH]c1=O | – | inactive: -11.3%
Cn1ccnc1C1CCCCN1C(=O)CN1Cc2ccccc2OC(c2ccccc2F)C1 (configuration not stated) | inconclusive [inhibitor, single point] | –
Cn1ncc2c(Nc3ccc(O)cc3)nc(Cl)nc21 | – | inactive: -5.28%
O=S(=O)(Nc1cccc(-c2nc3cccnc3s2)c1)c1ccc2c(c1)OCCO2 | inconclusive [inhibitor, single point] | –
CCN(c1ccc(OC)cc1)S(=O)(=O)c1ccc(-c2ccc(=O)[nH]n2)o1 | inconclusive [inhibitor, partial curve] | –
O=C(c1cccc(N2C(=O)C3C4C=CC(C4)C3C2=O)c1)N1CCCc2ccccc21 (configuration not stated) | – | inconclusive: -35.5% [inhibitor]
CC(C)c1ccc(CCNC(=O)c2ccc([N+](=O)[O-])cc2)cc1 | inconclusive [inhibitor, single point] | –

Compound | Potency | activity change, negative = growth inhibition
CC(=O)O[C@H]1c2ccccc2-c2ccccc2[C@@H]1OC(C)=O | – | inactive: 1.27%
CC1CCCN(C(=O)Cn2c(=O)oc3cc(S(=O)(=O)N4CCCCC4)ccc32)C1 (configuration not stated) | inconclusive [inhibitor, partial curve] | –
CCOc1ccc(C2c3c(-c4ccc(C)cc4)n[nH]c3C(=O)N2c2ccc(Cl)cc2)cc1 (configuration not stated) | inconclusive [inhibitor, single point] | –
O=c1cc(-c2ccccc2F)oc2ccccc12 | inconclusive [inhibitor, single point] | –
COc1cccc(/C=C/c2ccc3cccc(O)c3n2)c1 | active: 7.31 µM | –
O=C(NC(=S)Nc1ccccn1)c1ccccc1 | inconclusive [inhibitor, partial curve] | –
CCc1ccc(NC(=O)CC2C(=O)NCCN2C(=S)Nc2ccccc2)cc1 (configuration not stated) | inconclusive [inhibitor, partial curve] | –
O=C(NCc1ccc(F)cc1)N1[C@H]2CC[C@@H]1C=C(c1ccc(F)cc1OCc1ccccc1)C2 | active: 7.31 µM | –
CCCc1nc(SCC(=O)O)c2sc(=S)n(-c3ccccc3)c2n1 | – | inactive: 19.3%
O=S(=O)(c1cccc(-c2nnc(SCc3nc4ccccc4s3)o2)c1)N1CCOCC1 | inconclusive [inhibitor, single point] | –
O=C(O)C1CC=CCC1C(=O)N1CCc2ccccc21 (configuration not stated) | – | inactive: -6.2%
Cc1ccc(S(=O)(=O)NC(=O)N(C)C2CCCCC2)cc1 | – | inactive: -19.8%
CCOC(=O)c1sc(-c2ccc(Cl)cc2Cl)nc1O | active: 18.4 µM | –
CN(C)S(=O)(=O)c1cccc(C(=O)Nc2ccccc2N2CCCCC2)c1 | inconclusive [inhibitor, single point] | –
CSCCC(NS(=O)(=O)c1ccc(Cl)cc1)C(=O)OCC(=O)c1ccc(F)cc1 (configuration not stated) | – | inactive: -24.7%
CCCCN(C(=O)CSCC(=O)Nc1cccc(C)c1)c1c(N)n(Cc2ccccc2)c(=O)[nH]c1=O | inconclusive [inhibitor, full curve, poor fit] | –
COc1ccc(-n2c(=O)c3sc4ccccc4c3n(CC(=O)Nc3cccc(C)c3)c2=O)cc1 | inconclusive [inhibitor, single point] | –
O=C(Cc1cccc2ccccc12)NCC(=O)N1CCN(Cc2cccc(C(F)(F)F)c2)CC1 | active: 10.3 µM | –
Cc1ccc(F)cc1C(=O)N1CCC1(C)C(=O)O (configuration not stated) | – | inactive: 1.95%
Cc1ccc(-c2ccc(C(=O)Nc3cccc(F)c3)o2)c2ccccc12 | active: 20.6 µM | –
O=C1c2cccnc2-c2ncccc21 | – | inactive: -15.5%
Cc1nc(SC(C)C(=O)c2c(N)n(C)c(=O)n(C)c2=O)c2c(C)c(C)sc2n1 (configuration not stated) | inconclusive [inhibitor, single point] | –
CCCCOc1ccc(N2C(=O)CC(N(O)c3ccccc3)C2=O)cc1 (configuration not stated) | inconclusive [inhibitor, single point] | –
CC(=O)c1ccc(OCCCOc2cccc3cccnc23)cc1 | inconclusive [inhibitor, partial curve] | –
